The list shows a part of the results. Many values rest on one well or one pass, so single values are uncertain.

From the supplement of paper PMC4604168 (melanoma cell lines) come the findings set out here.

Experiment in all cases: cell count relative to DMSO control; melanoma cells; higher = more viable cells
What all share (details): library dose: standard library concentration; 72 h

Assay [1] has as its system G361.
In assay [2] the test system is IPC-298.
In assay [3] the test system is IST-MEL1.
Assay [4] concerns LB2518-MEL.
Assay [5] concerns LOXIMVI.
For assay [6], the system named is MEL-HO.
The test system of assay [7] is MZ2-MEL.
Assay [8] has as its system MeWo.
Assay [9] concerns RPMI7951.
Assay [10] relates to RVH-421.
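Also: cells treated in 1,536-well plates, then fixed and DAPI-stained, with nuclei counted from automated high-throughput microscope images.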

For `Cn1cnc2c(F)c(Nc3ccc(Br)cc3Cl)c(C(=O)NOCCO)cc21` [selumetinib] + NC1(c2ccc(-c3nc4ccn5c(=O)[nH]nc5c4cc3-c3ccccc3)cc2)CCC1 [MK2206] (first compound 0.075 µM, partner dose 2 µM), the cell count in [1] amounted to 33%; in [2] it was 51%; in [3], 79.4%; in assay [4], 32.8%; in assay [5] it was 77.5%; in assay [6], 56.3%. The cell count in assay [7] was 50.7%; in assay [8] it was 55.8%; in assay [9], 108%; in [10] it was 68%.
Take `COc1cc([C@@H]2c3cc4c(cc3[C@@H](O[C@@H]3O[C@@H]5CO[C@@H](C)O[C@H]5[C@H](O)[C@H]3O)[C@H]3COC(=O)[C@H]23)OCO4)cc(OC)c1O` [etoposide] + CC1(C)CCC(c2ccc(Cl)cc2)=C(CN2CCN(c3ccc(C(=O)NS(=O)(=O)c4ccc(N[C@H](CCN5CCOCC5)CSc5ccccc5)c(S(=O)(=O)C(F)(F)F)c4)cc3)CC2)C1 [ABT263] (first compound 0.1 µM, partner dose 2 µM): the cell count in assay [1] came out at 69.1%; in [2], 70.8%; in assay [3], 85.4%; in assay [4], 60.1%; in assay [5], 57.1%; in assay [6], 54.2%. The cell count stood at 48.2% in assay [7], 75.2% in [8], 27.4% in assay [9] and 54.4% in [10].
`Cn1cnc2c(F)c(Nc3ccc(Br)cc3Cl)c(C(=O)NOCCO)cc21` [selumetinib] + Cn1cc(/C=C2\C(=O)Nc3cccnc32)c2ccccc21 [GW441756] (first compound 0.075 µM, partner dose 2 µM): the cell count in [1] amounted to 45.8%; in assay [2], 54.4%; in assay [3], 84.3%; in assay [4], 50.5%; in assay [5], 98%; in assay [6], 75.8%. Moreover, the cell count in assay [7] came out at 76.6%; in assay [8] it was 74.3%; in assay [9], 130%; in [10] it was 86.3%.
As for `C[C@]1(O)C[C@@H](c2nc(-c3ccc4ccc(-c5ccccc5)nc4c3)c3c(N)nccn32)C1` + CC(C)(C)c1cnc(CSc2cnc(NC(=O)C3CCNCC3)s2)o1 [SNS-032] (first compound 2 µM, partner dose 0.05 µM), the cell count was found to be 79.1% in assay [1]; 97% in assay [2]; 79.4% in assay [3]; 75.1% in assay [4]; 46.4% in [5]; 98.9% in [6]. Besides, the cell count in [7] came to 88.5%; in assay [8], 64.7%; in assay [9], 36.1%; in assay [10], 96.7%.
Take `Cn1cnc2c(F)c(Nc3ccc(Br)cc3Cl)c(C(=O)NOCCO)cc21` [selumetinib] + C#Cc1cccc(Nc2ncnc3cc(OCCOC)c(OCCOC)cc23)c1 [erlotinib] (first compound 0.075 µM, partner dose 4 µM): the cell count amounted to 39.2% in assay [1]; 43.7% in assay [2]; 85.9% in assay [3]; 55.8% in assay [4]; 91.7% in assay [5]; 68.6% in [6]. In addition, the cell count is 45.4% in assay [7], 52.8% in assay [8], 71.8% in [9] and 81.7% in assay [10].
For `CCN(CC)CCNC(=O)c1c(C)[nH]c(/C=C2\C(=O)Nc3ccc(F)cc32)c1C` [sunitinib] + CCCCCCCCCCCC1=C(O)C(=O)C=C(O)C1=O [Embelin] (first compound 2 µM, partner dose 6 µM), the cell count in [1] is 69.6%; in assay [2], 62.3%; in [3], 64.8%; in assay [4], 63.2%; in [5], 106%; in assay [6], 81.1%. For the same compound, the cell count in [7] is 85.4%; in assay [8], 74.4%; in assay [9] it was 71.7%; in [10], 81.9%.
Take `COc1cc([C@@H]2c3cc4c(cc3[C@@H](O[C@@H]3O[C@@H]5CO[C@@H](C)O[C@H]5[C@H](O)[C@H]3O)[C@H]3COC(=O)[C@H]23)OCO4)cc(OC)c1O` [etoposide] + C[C@]1(O)C[C@@H](c2nc(-c3ccc4ccc(-c5ccccc5)nc4c3)c3c(N)nccn32)C1 [OSI906] (first compound 0.1 µM, partner dose 2 µM): the cell count in assay [1] came to 86%; in [2], 64.7%; in [3], 94.9%; in assay [4], 82.6%; in [5], 67.3%; in assay [6], 94.3%. In addition, the cell count in assay [7] came out at 68.1%; in assay [8], 69.7%; in assay [9], 66.5%; in assay [10] it was 77%.
Turning to `Cn1cnc2c(F)c(Nc3ccc(Br)cc3Cl)c(C(=O)NOCCO)cc21` [selumetinib] + COCC[n+]1c2c(n(Cc3cnccn3)c1C)C(=O)c1ccccc1C2=O [YM155] (first compound 0.075 µM, partner dose 0.002 µM), the cell count came out at 77.2% in assay [1]; 37.8% in [2]; 36.5% in assay [3]; 27.4% in assay [4]; 69.2% in assay [5]; 80.6% in assay [6]. Also, the cell count is 51.3% in assay [7], 59.6% in assay [8], 41.7% in [9] and 63.8% in assay [10].
As to `COc1cc([C@@H]2c3cc4c(cc3[C@@H](O[C@@H]3O[C@@H]5CO[C@@H](C)O[C@H]5[C@H](O)[C@H]3O)[C@H]3COC(=O)[C@H]23)OCO4)cc(OC)c1O` [etoposide] + COc1ccc(-c2ccc3c(N4CCOCC4)nc(N4C[C@@H](C)O[C@@H](C)C4)nc3n2)cc1CO [KU0063794] (first compound 0.1 µM, partner dose 0.1 µM), the cell count was 95.1% in [1]; 57.1% in [2]; 90.4% in assay [3]; 85% in assay [4]; 60.4% in [5]; 73.5% in [6]. The cell count in assay [7] came out at 61.2%; in assay [8], 77.9%; in [9], 79.2%; in [10], 99.9%.
Turning to `C[C@]1(O)C[C@@H](c2nc(-c3ccc4ccc(-c5ccccc5)nc4c3)c3c(N)nccn32)C1` + Cc1nc(Nc2ncc(C(=O)Nc3c(C)cccc3Cl)s2)cc(N2CCN(CCO)CC2)n1 [dasatanib] (first compound 2 µM, partner dose 0.02 µM), the cell count was 65.9% in assay [1]; 75.7% in [2]; 67.2% in [3]; 71.5% in assay [4]; 37.9% in assay [5]; 74.9% in assay [6]. For the same compound, the cell count in assay [7] turned out to be 49.7%; in assay [8], 60.3%; in [9], 49.2%; in [10] it was 66.4%.
